Screen size: about 360,000 compounds; about 740 (0.21%) were called active. The shares of active, inactive and inconclusive entries below differ from those in the screen. Calls come from the whole dose curve; as a rule, active = well fitted inhibition curve with a large enough effect; inconclusive = small, poorly fitted or top-dose-only effect; inactive = no such curve, though single readings can be large or run the other way. No potency is given beside an inconclusive call; the fits are too rough.
System: Plasmodium falciparum AMA1 (3D7) - RON2 peptide interaction
Experiment: qHTS for Inhibitors of AMA1-RON; Towards Development of Antimalarial Drug Lead: Primary Screen; note: nearly all actives have a fitted effect of over 45% in size
Details: AlphaScreen AMA1-biotinylated RON2 peptide binding; series mostly up to 58.2 µM
Method in brief: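 AMA1 (3D7) with his tag at 25 nM final met compounds first, then biotinylated RON2 peptide at 25 nM; detection used donor plus acceptor beads, 10 µg/mL apiece, read by AlphaScreen after 30 min at room temperature.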
Potency is the fitted concentration of half-maximal effect; tags give direction and shape of the fitted curve.

Compound	Potency
CC(=O)c1ccc(N2CCN(C(=O)c3cc(-c4ccncc4)nc4ccc(Br)cc34)CC2)cc1	inactive
COc1ccc(NC(=O)CSc2ccccc2)c([N+](=O)[O-])c1	inconclusive [inhibitor, partial curve]
CC(=O)Nc1cc(NC(C)=O)cc(C(=O)N2CCCC3CCCCC32)c1 (centres undefined)	inconclusive [inhibitor, partial curve]
OCCN(Cc1cccnc1)Cc1ccccn1	active: 14.1 µM
COc1cccc(OC)c1C(=O)Oc1ccc2c(c1)O/C(=C\c1ccncc1)C2=O	inconclusive [inhibitor, partial curve]
O=C(Nc1ccccc1Cl)C1CC(=O)N(c2ccccc2)C1 (centres undefined)	inactive
COc1ccc(C)cc1NC(=O)c1ccc(CN2CCN(c3ccccc3)CC2)cc1	inconclusive [inhibitor, single point]
COc1cccc(CN2CCN(Cc3ccccc3C(F)(F)F)CC2)c1	inconclusive [inhibitor, single point]
COc1ccc(/C=C/c2cc(C(F)(F)F)on2)cc1	inactive
CN(c1ccc(C(=O)Nc2ccc(Cl)cn2)cc1)S(=O)(=O)c1ccccc1	inactive
CSc1ccc(S(=O)(=O)NCC(=O)OC(C)C(=O)NCc2ccccc2)cc1[N+](=O)[O-] (centres undefined)	inconclusive [inhibitor, partial curve, poor fit]
CC1CC1c1ccc(/C=C(\C#N)C(=O)Nc2cc(Cl)ccc2Cl)o1 (centres undefined)	inconclusive [inhibitor, partial curve, poor fit]
N#Cc1ccccc1S(=O)(=O)N1CCN(CC(O)c2ccccc2)CC1 (centres undefined)	inactive
CCOc1c(Br)cc(CNc2ccc3c(c2)OCCO3)cc1OC	inconclusive [inhibitor, partial curve]
CC(C)Cc1nc(N2CCOCC2)c(C#N)c2c1COC(C)(C)C2	inactive
Cc1cccc(N2C(=O)C3CCC(c4ccccc4)CC3C2=O)c1 (centres undefined)	inconclusive [inhibitor, partial curve]
CCCC(=O)c1ccc(N2CCN(C(=O)c3ccc(Br)cc3)CC2)c(F)c1	inconclusive [inhibitor, full curve, poor fit]
O=c1[nH]c2ccccc2n1C1CCN(C(c2nnnn2C2CCCCC2)C2CC2)CC1 (centres undefined)	inconclusive [inhibitor, single point]
Cc1cc(Oc2cc(NN3CCCCC3)c([N+](=O)[O-])cc2[N+](=O)[O-])ccc1[N+](=O)[O-]	inconclusive [inhibitor, partial curve]
Fc1ccc2[nH]c3c(N4CCN(Cc5ccc6c(c5)OCO6)CC4)ncnc3c2c1	inconclusive [inhibitor, single point]
O=C(COc1ccccc1)OCC(=O)N1CCCc2ccccc21	inactive
COc1ccc(C2OC(=O)CC2C(=O)NCc2ccc(C)cc2)cc1OC (centres undefined)	inactive
COc1ccc(OC)c(-c2csc(NC(=O)Cc3ccccc3OC)n2)c1	inconclusive [inhibitor, single point]

Compound	Potency
O=C(O)c1cc(N2N=C(C(F)(F)F)/C(=C/C=C/c3ccco3)C2=O)ccc1Cl	inconclusive [inhibitor, single point]
Cc1cccc(N2CCN(C(=O)c3ccc4nc(-c5ccco5)c(-c5ccco5)nc4c3)CC2C)c1 (centres undefined)	inconclusive [inhibitor, partial curve]
CC(C)C(=O)NC(NC(=O)C(C)C)c1ccc([N+](=O)[O-])cc1	inconclusive [inhibitor, full curve, poor fit]
O=C(CCNNC(=O)c1ccncc1)NCc1ccccc1	inactive
O=[N+]([O-])c1cccnc1N1CCC(c2cc(-c3ccc(Cl)cc3Cl)n[nH]2)CC1	inactive
CN(C)CCN(C(=O)c1ccccc1Cl)c1nc2c(Cl)cccc2s1	inconclusive [inhibitor, partial curve]
CC(O)(C#CCN1CCOCC1)c1ccccc1 (centres undefined)	inconclusive [inhibitor, partial curve, poor fit]
COc1ccc(NC(=O)CN(C)C(=O)c2cc3c(s2)CCC3)cc1	inconclusive [inhibitor, partial curve]
N#CCSc1ccccc1NC(=O)COC(=O)CCN1C(=O)C2CC=CCC2C1=O (centres undefined)	inconclusive [inhibitor, full curve, poor fit]
Fc1ccc(CCNCc2ccc(Br)cc2)cc1	inconclusive [inhibitor, full curve]
Cc1ccc(NC(=O)COC(=O)COc2ccc(Cl)cc2C)c([N+](=O)[O-])c1	inconclusive [inhibitor, partial curve]
Brc1ccc(Cn2c(-c3ccc(Br)o3)nc3ccccc32)o1	inconclusive [inhibitor, partial curve]
CC(NCc1ccc(S(N)(=O)=O)cc1)C(=O)N1c2ccccc2CC1C (centres undefined)	inconclusive [inhibitor, single point]
Cc1cccc(C(C(=O)NC2CCCC2)N(C(=O)c2csnn2)C2CCCC2)c1 (centres undefined)	inactive
CCOC(=O)C1(CCOc2ccccc2)CCN(Cc2cc(OC)c3c(c2)OCO3)CC1	inconclusive [inhibitor, single point]
O=C(NC1CCCCC1)C(c1ccccc1)N1CCc2ccccc21 (centres undefined)	inconclusive [inhibitor, single point]
COCCn1cnc2c1c(=O)n(Cc1ccccc1C#N)c(=O)n2Cc1ccccc1	inconclusive [inhibitor, single point]
Cc1ccccc1CNC(=O)C(=O)NCCC1CCCCN1S(=O)(=O)c1cccs1 (centres undefined)	inconclusive [inhibitor, full curve]
COc1cccc(-c2sc3ccccc3c2-c2ccc(OCCN(C)C)cc2)c1	inconclusive [inhibitor, partial curve]
Cc1[nH]c2ccc(OCc3ccccc3)cc2c1CCN	inconclusive [inhibitor, single point]
COc1ccc(Nc2ccc([N+](=O)[O-])cc2[N+](=O)[O-])cc1	inconclusive [inhibitor, single point]
CCOC(=O)C1=C(COC(=O)/C=C/c2ccc(Cl)cc2)NC(=O)NC1C (centres undefined)	inactive
c1ccc(CN2CCN(c3nc(-c4ccccc4)nc(-n4ccnc4)n3)CC2)cc1	inconclusive [inhibitor, full curve, poor fit]

Compound	Potency
COc1cccc(NCc2ccc([N+](=O)[O-])s2)c1	inactive
CN(C)c1ccc(CN2CCC(C(=O)NC(c3ccc(F)cc3)c3ccc4ccccc4n3)CC2)cc1 (centres undefined)	inconclusive [inhibitor, partial curve]
Cc1cccc(-c2ncc(CN3CCCC(CO)(Cc4ccccc4C)C3)cn2)c1 (centres undefined)	inactive
CN(C)c1cccc(NC(=O)C2Cc3c(-c4ccccc4Oc4ccccc4)ccnc3O2)c1 (centres undefined)	inconclusive [inhibitor, partial curve]
O=C(Cn1nnc(-c2ccccc2NC(=O)c2ccccc2F)n1)NCc1ccco1	inconclusive [inhibitor, single point]
Cc1cc(NC(=O)CSc2nnc(C3COc4ccccc4O3)o2)no1 (centres undefined)	inconclusive [inhibitor, single point]
CN(C)CCNC(=S)Nc1ccccc1C(C)(C)C	inactive
COc1ccc(C2NCCc3c2[nH]c2ccccc32)cc1CSc1nc2ccccc2s1 (centres undefined)	inconclusive [inhibitor, single point]
COc1cc2c(cc1NCc1ccc3c(c1)OCO3)oc1ccccc12	active: 31.6 µM
Cc1cc(SC#N)cc(C)c1NC(=O)CCl	inactive
c1ccc(NNC2=NCCS2)cc1	inconclusive [inhibitor, single point]
O=C(C[n+]1cc(Br)cc(Br)c1)c1ccc(Cl)cc1	inactive
Cc1c(N=C2C=C(Br)C(=O)C(Br)=C2)c(=O)n(-c2ccccc2)n1C	inconclusive [inhibitor, partial curve]
Cc1cc(C(=O)OCC(=O)NCc2cccs2)c2ccccc2n1	inconclusive [inhibitor, single point]
Cc1cccc2sc(N(CCCN(C)C)C(=O)CCc3ccccc3)nc12	inconclusive [inhibitor, partial curve]
Cc1ccc(CNC(=O)CCn2cc(-c3ccc(C)cc3)nc2-c2ccncc2)cc1	inactive
Cc1ccc(Nc2nnc(SCC(=O)NCC3CCCO3)s2)cc1 (centres undefined)	inactive
O=C(c1ccc(-c2ccccc2Cl)o1)N1CCN(S(=O)(=O)c2cccs2)CC1	inconclusive [inhibitor, partial curve]
Cc1ccn2c(=O)nc(SCc3cccc(C(F)(F)F)c3)nc2c1	inconclusive [inhibitor, single point]
COc1ccccc1NC(=O)c1ccc(NS(=O)(=O)c2cccc3cccnc23)cc1	inactive
Cc1cc(C)cc(NC(=O)Nc2ccc(N3CCCCC3)cc2)c1	inactive
Cc1ccc(C(=O)N2CCN(c3ccc4c(c3)C3CC4CCN3C(=O)OCc3ccccc3)CC2)cc1 (centres undefined)	inconclusive [inhibitor, partial curve]
Brc1ccc(CSc2nccn2-c2ccccc2)cc1	inconclusive [inhibitor, partial curve]

Source: PubChem BioAssay AID720542 (National Center for Advancing Translational Sciences (NCATS), 2013)
